Data as given in ChEMBL document CHEMBL1157539, “Thousands of chemical starting points for antimalarial lead identification” (Nature, 2010).
Whole data set: some 13,000 compounds, median “IFI” near 4, cut for the highest 2% near 17. The list shows a part of the results.

experiment: GSK_TCMDC: Inhibition Frequency Index (IFI). The number of non-kinase HTS assays where a compound showed > 50 % inhibition, expressed as a percentage of the number of such assays in which the compound was tested (-0 is zero); format: functional

First: C[C@@H]([C@@H](CCCCc1ccccc1)C(=O)N[C@H](C(=O)Nc1cccnc1)C(C)(C)C)N(O)C=O
Second: Cc1cc(N[C@@H](CC(C)C)C(=O)NCCc2ccccc2)nc(NCc2ccccc2C)n1
The IFI of the first is lower: 2.22% for the first, 12.2% for the second.

First: O=c1c2ccccc2[nH]c2cc(Cl)ccc12
Second: Cn1cc(-c2ccccc2C(=O)O)c(=O)c2cc(Cl)ccc21
The IFI of the first is lower: 1.6% for the first, 1.74% for the second.

Compared with `c1cc(CN2CCN(CCN3CCOCC3)CC2)cc(-c2ccc(-c3nc4ccccc4[nH]3)cc2)c1`, `COCCN1CCN(Cc2ccc(-c3ccc(-c4nc5cccc(C)c5[nH]4)s3)cc2)CC1` is higher in IFI: 2.82% for the first, 6.86% for the second.

Going from `Cc1cccc(Cl)c1Nc1nnc(-c2cccc(C(=O)NC[C@@H]3CC[C@H]4C[C@@H]3C4(C)C)c2)o1` to `Cc1cccc2nc(-c3ccc(-c4cccc(C(=O)N5CCCCC5C(C)O)c4)s3)[nH]c12` (stereo not given), the IFI rises from 2.96% to 3.81%.

First: COc1cccc(Cc2cnc3nc(N)nc(N)c3c2C)c1
Second: CCC(C)(C)n1c(C)cc2c3c(N)nc(N)nc3ccc21
The IFI of the first is lower: 1.46% for the first, 9.15% for the second.

First: Cc1nc(C)c(-c2ccc(Cl)cc2)c(O)c1I
Second: Cc1nc(C)c(-c2ccc(C(F)(F)F)cc2)c(O)c1Br
The IFI of the first is higher: 1.54% for the first, 0% for the second.

First: CCN(CC)CCN(CCN(CC)CC)c1ccc(-c2nc3cc(Cl)c(Cl)cc3[nH]2)cc1
Second: CCN(CC)CCNc1ccnc2[nH]c3ccc([N+](=O)[O-])cc3c12
The IFI of the first is lower: -0% for the first, 1.48% for the second.

Compared with `CCCOc1ccccc1C(=O)Nc1nonc1-c1ccc(OCC)c(OCC)c1`, `CCOc1ccc(C(=O)Nc2nonc2-c2ccc(OC)c(OC)c2)cc1` is lower in IFI: 6.82% for the first, 2.04% for the second.

Compared with `COc1cc(CCNCC(O)c2ccc([N+](=O)[O-])c(OCc3ccccc3)c2)cc(OC)c1OC` (stereo not given), `COc1ccc(OC)c(NC(=O)C2c3ccccc3C(=O)N(CC(C)C)C2c2cccs2)c1` (stereo not given) is lower in IFI: 4% for the first, 0% for the second.

Going from `c1ccc2c(Nc3ccc(Cc4ccc(Nc5c6ccccc6nc6ccccc56)cc4)cc3)c3ccccc3nc2c1` to `Cc1[nH]c2ccccc2c1C=NNc1nc(=Nc2ccccc2)[nH]c(=Nc2ccccc2)[nH]1`, the IFI falls from 8.89% to 2.94%.

Compared with `Clc1cc(Cl)cc(Nc2ccnc(Nc3cc(Cl)cc(Cl)c3)n2)c1`, `COc1cccc(C(O)CNc2ccnc(Nc3ccc(Cl)cc3)n2)c1` (stereo not given) is higher in IFI: 2.33% for the first, 19.8% for the second.

Compared with `CCCCCCCN(CCCCCCC)CCNc1cc(C)nc2ccccc12`, `CCCCCCCC1=NN2C(=N)C(=Cc3cc(Br)c(OCc4ccc(F)cc4)c(OCC)c3)C(=O)N=C2S1` is lower in IFI: 10.6% for the first, 0.75% for the second.

First: CCN(CCCN1CCCCC1)c1cc(C)nc(Nc2ccc(Cl)cc2C)n1
Second: Cc1cc(NC(=O)c2cc(S(=O)(=O)N3CCCCC3)ccc2C)no1
The IFI of the first is higher: 5% for the first, -0% for the second.

Going from `COc1ccc(CN2CCC(CNCCc3ccccc3Cl)CC2)cc1` to `COc1ccc2nccc([C@@H](O)CN3CCC(NCc4cc5oc(=O)[nH]c5cc4Cl)CC3)c2c1`, the IFI falls from 2.92% to 2.86%.

Compared with `COCCOc1ccc(Nc2nccc(-c3c(-c4cccc(NC(=O)c5c(F)cccc5F)c4)nn4ccccc34)n2)cc1F`, `O=C(Nc1cccc(-c2cccc(-c3nc4ccccc4[nH]3)c2)c1)c1ccncc1` is higher in IFI: 4.14% for the first, 8.33% for the second.

Going from `O=[N+]([O-])c1cccc(CNCC2CCN(CC3CCCCC3)CC2)c1` to `CN1CCC(N2CCC(Oc3cccc(C(=O)NCCCC4CCCC4)c3)CC2)CC1`, the IFI rises from 2.16% to 14.3%.

First: CCCNC[C@@H](O)[C@H](Cc1ccccc1)NC(=O)c1cc(NCC)cc(N2CCCC2=O)c1
Second: CCCCCN1CCCC1CNS(=O)(=O)c1ccc(C(=O)Nc2cccc(C(F)(F)F)c2)cc1 (stereo not given)
The IFI of the first is lower: -0% for the first, 4.88% for the second.

First: CCC(C)c1ccc(NC(=O)c2ccc(S(=O)(=O)Nc3ccc(OC)c(N4CCN(CC5CC5)CC4)c3)cc2)cc1 (stereo not given)
Second: COc1ccc(-c2ccc(NC(=O)c3ccc(C#N)cc3)cc2)cc1CN1CCNCC1
The IFI of the first is higher: 13.6% for the first, 2% for the second.

Going from `N#Cc1ccc2c(c1)CCN(CCC1CCC(NC(=O)/C=C/c3ccc4[nH]ccc4c3)CC1)CC2` (stereo not given) to `N#Cc1ccc(NC(=O)c2ccc(Cc3ccc4c(c3)CCN(C3CCC3)CC4)cn2)cc1`, the IFI rises from 4.41% to 8.41%.

Going from `Oc1ccccc1-c1nc2cccnc2n1CCc1cccc(C(F)(F)F)c1` to `FC(F)(F)c1cccc(Nc2nc(-c3ccccc3)nc3ncccc23)c1`, the IFI falls from 1.57% to 0.75%.

First: CC(=O)Nc1nc(C(=O)Nc2cccc(-c3ccc(-c4nc5cc(F)ccc5[nH]4)cc3)c2)cs1
Second: CC(=O)Nc1ccc(C(=O)Nc2ccc(-c3csc(-c4nc5ccccc5[nH]4)c3)cc2)cn1
The IFI of the first is higher: 6.09% for the first, 0.9% for the second.

Compared with `COc1ccc(C(=O)CCC(=O)N(Cc2ccc(-c3ccc(CNCCc4ccc(S(C)(=O)=O)cc4)cn3)cc2)Cc2ccc3c(c2)OCO3)cc1F`, `COc1cccc(C2=CC(c3ccccc3)n3ncc(C(=O)Nc4ccc(Cl)cc4)c3N2)c1` (stereo not given) is lower in IFI: 8.39% for the first, 2.67% for the second.

First: O=C(CC(=O)C(F)(F)F)c1ccccc1[N+](=O)[O-]
Second: C=CCn1c(Sc2ccc(C#N)c([N+](=O)[O-])c2)nnc1-c1ccc(OC)cc1
The IFI of the first is higher: 5.07% for the first, 2.16% for the second.

Going from `Clc1ccc(CNc2nc(NCCc3c[nH]cn3)nc(N3CCCC4CCCCC43)n2)cc1` (stereo not given) to `COc1ccc2nccc(CCC3(O)CCC(NCc4cc5c(cc4F)SCC(=O)N5)CC3)c2c1` (stereo not given), the IFI falls from 3.73% to 3.6%.

`CCCc1nc2c(N3CC(NC(=O)/C=C/c4ccccc4)C3)cccc2n1C1CC1` and `COc1nc(NCC(C)C)nc(Oc2ccc(=O)n(Cc3ccccc3)n2)n1` are the same in IFI: 0% for the first, -0% for the second.

Going from `COc1ccc2[nH]ccc(=NN=Cc3ccc(F)cc3)c2c1` to `Cc1cc(=NN=Cc2ccc(F)cc2)c2ccc(F)cc2[nH]1`, the IFI falls from 2.22% to 0.71%.

Compared with `O=C(Nc1ccc(Cn2ncc(N3CCCNCC3)c(Cl)c2=O)cc1)Nc1cc(Cl)cc(Cl)c1`, `O=C(Nc1ccc(NC2=NCCN2)cc1)Nc1ccc(NC2=NCCN2)cc1` is lower in IFI: 2.94% for the first, 1.52% for the second.

First: CCN1CCN(c2cc(C)c3cc(NC(=O)c4ccc(OC)c(OC)c4)ccc3n2)CC1
Second: COc1ccc2[nH]c(C)cc(=NN=Cc3ccncc3)c2c1
The IFI of the first is higher: 2.26% for the first, 0.71% for the second.

Going from `O=c1ccccn1CCCC1CCCCN1` (stereo not given) to `NC(=O)c1cc2nc(NC3CCC3)nc(Nc3cccc4[nH]ncc34)c2[nH]1`, the IFI rises from 0% to 3.57%.

Going from `CSC1=NC(=Nc2c(C)cccc2C)C2(CCC(C(C)(C)C)CC2)N1c1ccc(O)cc1` (stereo not given) to `CCC1CCc2cc(N)cc(-c3nc4c(c(C)nn4CC)c(=O)[nH]3)c2O1` (stereo not given), the IFI falls from 7.3% to 3.7%.
